Measurements published in article PMC12136788.
The other results are listed elsewhere or left out.

B1: chr1:37566712:37566813:+|3pUTR|ENSG00000163879|unk|FALSE|unique (ssRNA)
RNA: GGGAGUUCUACAGUCCGACGAUCGCUUUAUUUCCCUAGCACUGGUGAAGGGCUUCAACUGUCAAACCUCAGAACAAAUGCAUUAGGGCCUUAGAAAUGUCAAUGGGGCAGGAAGAAAACACAAUUUCUAACUGCCUGUUUUUGCAACAGAGGAUUGAGCAUCA
B2: chr7:101206146:101206247:-|3pUTR|ENSG00000106397|msi1|total|mutant (ssRNA)
RNA: GGGAGUUCUACAGUCCGACGAUCCUUUGUCGACCCCUGACACUCAACCACUCUGCCAAACCUGCCCUGCCAUUGUGCCUUUUCCGGGGGCCUGGCCCCCGUCCUGGGAGUUGGGGGAUGGGUCUCUCUGUCUCCCCACUUCCUCAACAGAGGAUUGAGCAUCA
B3: chr14:100883974:100884119:-|CDS|ENSG00000254656|unk|FALSE|unique (ssRNA)
RNA: GGGAGUUCUACAGUCCGACGAUCGUUCUAUAACGACCGUCUGAGAGUUGGCUAUGUCAUCAAUCACCUGUCCGGCUUGGCAUUAGAAUGGGCCAAAGCUCUACUGCAGGAAAACAGCCCCCUGAUCGGAGACUUCCCAGCCUUCAACAGAGGAUUGAGCAUCA
B4: ENSG00000151025:stop:overlap|stop_codon|ENSG00000151025|stop_codon|NA|stop_codon (ssRNA)
RNA: GGGAGUUCUACAGUCCGACGAUCUAAGUGCAAAUAAGAUAGCAGGGCCUAGGAAAGAAGAGAUCUGGGAUAGUUUUAAAGUGUAGCAUCUCCAGGAAGAAGAGGAAAAGGAGGGAACCCCGGAUUGGAUAUGAGACAGAAGAUCAACAGAGGAUUGAGCAUCA
B5: chr11:56417260:56418232:-|CDS|ENSG00000279961|control|control|control (ssRNA)
RNA: GGGAGUUCUACAGUCCGACGAUCGACAAGAUGGCUUCUGUAUUUUACACAGUGGUGAUCCCCAUGUUAAACCCCCUAAUCUAUAGUCUAAGGAACAAAGAAGUGAAAGAUGCCUCAAAGAAAGCCUUGGAUAAAGGUUGUGAACAACAGAGGAUUGAGCAUCA
B6: ENSG00000136451:be:win_601|CDS|ENSG00000136451|bound_else_gene|NA|bound_elsewhere_windowed (ssRNA)
RNA: GGGAGUUCUACAGUCCGACGAUCCCCUUUGAGUGUCCUAUUUGUAAUCAGCGCUUCAAGAGGAAGGACCGGAUGACUUACCAUGUGAGGUCUCAUGAAGGAGGCAUCACCAAACCCUAUACUUGCAGUGUUUGUGGGAAAGGCCAACAGAGGAUUGAGCAUCA
B7: ENSG00000107863:be:win_1651|CDS|ENSG00000107863|bound_else_gene|NA|bound_elsewhere_windowed (ssRNA)
RNA: GGGAGUUCUACAGUCCGACGAUCAAAUCUUUUCGAGGUUCCAAUUUUACUGUGGCUCCAAGCGUUGUUAAUUCUGAUAACAGGCGAAUGAGUGGUAGAGGAGUGGGAUCUGUGUCGCAGUUUAAAAAAAUUCCACCAGAUCUACAACAGAGGAUUGAGCAUCA
B8: chr10:27397735:27399240:-|CDS|ENSG00000182077|control|control|control (ssRNA)
RNA: GGGAGUUCUACAGUCCGACGAUCUCUUCUAGGCUACCCAGUGUUACAAAGUGCAAUUUCAACAAUAAUAGGGGUGUGUGUUUUAGCUGCAGCGAAAGCAUACAUCUUCAGAACAUUUUUUAAGAUUAUGUUUCUUGUUAUGAUCAACAGAGGAUUGAGCAUCA
B9: chr1:203340627:203342342:-|three_prime_utr|ENSG00000122176|control|control|control (ssRNA)
RNA: GGGAGUUCUACAGUCCGACGAUCUGGCUUUUGCUGGAAGGUCCAGGAUGGACCAUGUGACAGAAGUCCACGGGCACCCUCUGUAGUCUUCUUUCCUGUAGGUGGGGUUAGGGGGGGCGAUCAGGGACAGGCAGCCUUCUGCUGCAACAGAGGAUUGAGCAUCA
B10: chr14:81473690:81473791:-|3pUTR|ENSG00000071537|msi1|FALSE|unique (ssRNA)
RNA: GGGAGUUCUACAGUCCGACGAUCCAGUGUUUUGGAAGUAUGCAUGCAGGCCUAUAAAUGAAAAACACAAUUCUUUAUGUGUAUAGCAUGUGUAUUAAUGUCUAACUACAUACGCAAAAACUUCCUUUACAGAGGUUCGGACUACAACAGAGGAUUGAGCAUCA
B11: chr16:70572763:70572864:+|3pUTR|ENSG00000189091|msi1|FALSE|bound_elsewhere (ssRNA)
RNA: GGGAGUUCUACAGUCCGACGAUCUCUGCAGCACCCAUCUCAGGUGGGUUCCAGAGGGCCUUUAGGGUAUAAUGAGAGCCUGUUAGGUGGAAGAGGCCCAGUUCCAGAAAUGUUCCAGCCCACCCCUGAGAAUUCCUCCUGUUUCAACAGAGGAUUGAGCAUCA
B12: ENSG00000124766:be:win_3401|3pUTR|ENSG00000124766|bound_else_gene|NA|bound_elsewhere_windowed (ssRNA)
RNA: GGGAGUUCUACAGUCCGACGAUCCUGUAAGCUUUUAAGAAAAACAAAGUUUUAAACGAAAUACUGCUCUGUCCAGAGGCUUUAAAACUGGUGCAAUUACAGCAAAAAGGGAUUCUGUAGCUUUAACUUGUAAACCACAUCUUUCAACAGAGGAUUGAGCAUCA
B13: chr15:97973610:97973711:+|3pUTR|ENSG00000140450|unk|FALSE|unique (ssRNA)
RNA: GGGAGUUCUACAGUCCGACGAUCGGUGCACAAAAUCCUUCUGUGGGCAAAACUUUGUUUUUGUUUUGCACAGUAAGAAACAAUAGGCAAGCGUUAUGUUUUUGGUAAGUUAACUAUGAAAGCUUUCUUAUUUUUAUUAUUAAACAACAGAGGAUUGAGCAUCA
B14: chr2:121339258:121339359:-|3pUTR|ENSG00000074054|unk|FALSE|unique (ssRNA)
RNA: GGGAGUUCUACAGUCCGACGAUCUUUUGAGAUUAAUUCUAAUAACGUAUUUGCUAUUGCAGUGCAGAGCCCACUGCAACUGCUAGGACUGAAAGCAGAGGCUGGGUGCCAGAGCACGUGAUUCUUAACAUCAUUUCCACAGACCAACAGAGGAUUGAGCAUCA

Molecular target: T1, UNK ZnF1-6 (called full-length) (human, UniProt Q9C0B0 30-357)
T1 sequence: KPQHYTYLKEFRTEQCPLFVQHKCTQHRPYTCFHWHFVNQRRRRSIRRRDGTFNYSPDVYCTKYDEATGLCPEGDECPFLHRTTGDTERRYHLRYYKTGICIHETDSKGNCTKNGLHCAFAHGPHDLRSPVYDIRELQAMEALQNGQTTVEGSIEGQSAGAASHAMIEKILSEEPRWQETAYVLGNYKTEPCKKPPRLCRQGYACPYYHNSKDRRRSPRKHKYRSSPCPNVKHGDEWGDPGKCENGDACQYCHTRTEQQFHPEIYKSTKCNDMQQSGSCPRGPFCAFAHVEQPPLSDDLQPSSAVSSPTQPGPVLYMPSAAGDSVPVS
Assay: nsRBNS (natural sequence RNA bind-n-seq); RBNS binding buffer (assumed for nsRBNS): 25 mM Tris pH 7.5, 150 mM KCl, 3 mM MgCl2, 0.01% Triton X-100, 500 ug/ml BSA, 20 U/ml SUPERase-In, 4 C; UNK is unkempt and MSI1 is Musashi-1; names of the RNAs are library labels; protein concentration not given here; high values mean tight binding

In order of falling binding signal:
1. B13  1.28 enrichment R
2. B9  1.2 enrichment R
3. B5  1.01 enrichment R
4. B14  0.814 enrichment R
5. B4  0.709 enrichment R
6. B2  0.704 enrichment R
7. B10  0.61 enrichment R
8. B11  0.61 enrichment R
9. B7  0.601 enrichment R
10. B3  0.571 enrichment R
11. B1  0.557 enrichment R
12. B6  0.519 enrichment R
13. B12  0.485 enrichment R
14. B8  0.38 enrichment R
